Read counts are not given, so values of variants with three or more changes are uncertain.

In the RNAGym collection of RNA variant scans (doi:10.1093/nar/gkz1192) one finds self-cleavage data, which are given here for 167 variants.

Sequences and labels used below:
B1: CPEB3 Ribozyme (parent)
chain: UAACAGGGGGCCACAGCAGAAGCGUUCACGUCGCAGCCCCUGUCAGAUUCUGGUGAAUCUGCGAAUUCUGCUGUAUAUCUC

The variants in this data set derive from B1. The experiment in a line: self-cleavage, relative activity (ratio to wild type); higher = more cleavage; in vitro, sequencing. A digest of the protocol: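 Relative activity was defined as the cleaved/total read fraction for a variant divided by the same fraction for the unmutated ribozyme. CPEB3 self-cleaving ribozyme libraries were made by rounds of error-prone PCR, barcoded, and transcribed in vitro with T7 RNA polymerase for 5 hours at 37°C, and cleavage ran through transcription plus a 15 min DNase I step before EDTA. Illumina sequencing of template-switched reverse transcripts gave the reads, and DNA sequencing mapped the barcodes. Averages come from three batches, using variants with at least 5 reads.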
For the variant A3U A21U A28G U43A, the self-cleavage was determined as 0.12.
In the case of A3U A28G G30U A35U, the self-cleavage is 0.16.
For the variant C4A U26C U43C G55A, the self-cleavage came to 0.35.
Take A3U G8C C32G C37U A75G: the self-cleavage was 0.05.
To C4U A35U A45U U72C belongs 0.52; to A3U U25C U31C, 0.2.
To C4U A20U U51A A56G belongs 0.12; to C4U A20U U25C U51A, 0.44; to A3U U49C U80C, 0.51.
With A3U U26C A47G U48C A57G U80C the figure was 0.27; with A3U C39U A57G A64G, 0.4; with C4G G10A C12U C23U U74C, 0.12.
Take C4G A20U G63A A65G: the self-cleavage stood at 0.41.
In the case of A3U C12U A21G U60C U69C, the self-cleavage was found to be 0.32.
To C4U C14A A21G U25C U48C U80A belongs 0.07; to C4G A5G A15G, 0.54; to C4G A13G A45C U58C U80C, 0.06.
For the variant C4U A35U U41A U60A A65G C71A, the self-cleavage worked out at 0.11.
With A3U U25C U31C U43A A57U the figure was 0.24; with A3U G19U C40U U43G U48C U60G, 0.34.
With A3U U26C C59A U60C U80G the figure was 0.33; with A3U G9C U31A A35U C38U U67C U78C, 0.04; with C4U G7C C23A U25C A35G U76C, 0.08.
With A3U C12U G30C U41C A75U the figure was 0.09.
With A3U G36A A56U, the self-cleavage turned out to be 0.14.
With C4U C12U A47U, the self-cleavage was 1.33.
Consider C4A U41C U69A U78C U80A, for which the self-cleavage is 0.7.
To A3U G6C A15G A56G belongs 0.62; to C4U A5G A13U U41C U60A A64G U80A, 0.23; to A3U A28G U66C, 0.09.
On to A3U G8U U26A C62U, for which the self-cleavage is 0.05.
To A3U A47G U48A belongs 0.5; to C4U A15G A35G, 1.07.
To A3U U41C U80C belongs 0.96; to C4U A35G U66G, 1.22.
A3U A28U G36A U41A U69C U72C: the self-cleavage came to 0.14.
To C4A A20U U48C G63U belongs 0.14.
With C4U A5G A13G A21U U69A the figure was 0.39; with A3U U49C G73A, 0.87; with A3U U26C A35U A57G C79U, 0.22.
As to A3U U25C A35G A56G U58A, the self-cleavage was 0.23.
To A3U A35G A56G A57G A64G belongs 1.1; to A3U G6A C37U A56G A57G U72C, 0.08; to A3U C17G A18C C34U U72C, 0.36.
With A3U G6A U41A A64G U72C U76A the figure was 0.08; with C4U A13G A45G, 1.
To C4U A15U C23A A45G A65G U78A belongs 0.06; to C4U A5G U41C, 0.79.
Take A3U C17A U60G C62U A64G: the self-cleavage came to 0.17.
With A3U U25C C29U U48C A56G C62A U80C the figure was 0.14; with C4G C14U U25C U43A U49C U54C U69A, 0.06; with A3U C39G U67C, 0.18.
In the case of C4U A20G A28G U51C U60A U69A, the self-cleavage is 0.13.
Take C4U A18G U54C: the self-cleavage was found to be 1.22.
For C4A U60A G63U A77G, the self-cleavage turned out to be 1.07.
Regarding C4G G8A A18G U58C C59A, the self-cleavage was 0.
With A3U A35G C38U the figure was 1.23; with A3U A47G U48C U69C, 0.2.
To A3U G10U A15G U58C C68A U69C U78C belongs 0.03; to C4U A56U A64U, 0.47.
To A3U G9A A21G U60C C62U U78G belongs 0.13; to C4U A15U C29U C40U U49C U60C C62A, 0.07; to C4U A20G G22C A35G A56G U60A, 0.06.
For A3U A28G U60A G63A U76C, the self-cleavage was determined as 0.24.
To A3U C4U G8A A18U G33A U49C belongs 0.27; to A3U C71G U78C, 0.5; to C4A A45G U74A, 1.06.
To A3U U25A U48C U66C U67C U69C U72C belongs 0.23; to A3U C37U U51A U72G, 0.59; to A3U G33A U43C A65G, 0.14.
For A3U G8U U26A U41C U48C A65G, the self-cleavage was determined as 0.04.
With A3U U31A U49C U80C the figure was 0.55.
To C4U A56G A64U belongs 0.39; to C4A A15G U69C, 0.36.
To C4U A15U C37A U54G belongs 0.13; to A3U U43C A57G U58C U66C U74A, 0.08.
For A3U U49A C79U, the self-cleavage amounted to 1.04.
With A3U A35U U48C U69C U72C, the self-cleavage came out at 0.2.
With A3U G33U U51C U60C U66C U72C U78C the figure was 0.12; with A3U U25C A56G, 0.3; with A3U G10A U43C A45U U54A U66A A75G, 0.04.
To C4G A5U C38U U49C belongs 0.32; to A3U C12U C14U, 1.21.
For C4G A18G G30A U41A U78A, the self-cleavage is 0.26.
To C4U A18G U76C belongs 1.1.
C4U A13G G19A U41C: the self-cleavage was found to be 0.13.
With A3U U48C G70A U78C the figure was 0.47; with A3U U26G U31C C71A, 0.04; with C4A U26A A47G, 0.91.
To C4G A13U A18G U49C U80C belongs 0.27.
With C4U A18G U58C U72C the figure was 0.21; with A3U U51A U74C, 1.23.
On to C4U A21G U25C U43C, for which the self-cleavage worked out at 0.3.
Consider C4G A5U U43A A45U, for which the self-cleavage stood at 0.82.
Regarding A3U A21U G30A U31C U54A, the self-cleavage is 0.12.
To A3U C11G C27U A57G U67A U72C U80A belongs 0.06; to A3U G9C A47U U51C, 0.14; to A3U U48C G52A U54C, 0.75.
To C4U A15G A56U belongs 0.65; to C4A C23A U78C, 0.36.
With C4A A21G U54A A57G U67C the figure was 0.26.
Consider C4U A15U A35G U43C, for which the self-cleavage was 1.22.
Regarding A3U A21U A77G, the self-cleavage was determined as 0.36.
With A3U U49C U69C the figure was 0.28; with C4G U31C U78A, 1.16; with C4U A35U U48G U58A U72C, 0.08.
Consider C4U A35U U54A A64G, for which the self-cleavage came to 0.8.
As to C4U A13G A18G, the self-cleavage was 0.23.
With C4U A15G A56G A57G U80A the figure was 0.45; with C4A A35U U49C, 0.21; with C4U A57G C62U, 0.3.
To C4G A13G A45G U67A belongs 0.37; to A3U C14U A18G A21G G30A, 0.06; to A3U A35G C37G A57U G61U U67G A77G, 0.1.
With A3U C17G C40A A57G A77U the figure was 0.05.
As to C4U A35G U78A, the self-cleavage came out at 1.26.
With C4U A13U G24A U41A U51C U54A U72A the figure was 0.09; with A3U G9C G30U G33U U51G A64G U66C, 0.06; with A3U G10A C40U U74C A75G, 0.32.
With A3U A47G U48A U49A, the self-cleavage was determined as 0.35.
As to A3U U25C C38A, the self-cleavage was found to be 0.39.
Consider A3U U25C U41G A47U A56U A57U, for which the self-cleavage was determined as 0.13.
With A3U G7U G10A G24A U41A, the self-cleavage was 0.05.
With C4G A18G A64U U69A U80C, the self-cleavage came out at 0.26.
With C4A A13U A20U U67C U69C the figure was 0.2; with C4G A18G U60C, 0.35; with A3U G9C U60A, 0.08.
Regarding A3U U31C A47G U80A, the self-cleavage came out at 1.06.
With A3U U58A U66C U69C the figure was 0.16.
To C4G A18C U69C belongs 0.53.
As for A3U U74A U78C, the self-cleavage amounted to 1.26.
With C4G A15G A18G A35U U69A the figure was 0.12; with A3U C14A C23A C27G U31C A45G U78C, 0.11.
With C4G U54A A56G, the self-cleavage turned out to be 1.12.
For A3U U31C C40U U48C, the self-cleavage amounted to 0.12.
To A3U A57G A64U C68A U69A belongs 0.28.
Regarding C4U A18G A21G C29U C32A, the self-cleavage was found to be 0.12.
To A3U A56U C59G A64U belongs 0.2; to A3U A21U G42A U69C G73A U80A, 0.24.
With C4G A13U C17G U54C U72A the figure was 0.11; with A3U C12G A13G U49C U66C U80A, 0.24; with A3U U51A U72A, 1.08.
With C4U A35U U66C the figure was 0.11; with C4G A77G U80C, 1.15.
Regarding A3U C27U A35G, the self-cleavage amounted to 0.48.
For the variant A3U G9A U66C, the self-cleavage turned out to be 0.11.
Take A3U U41C G42C U76C: the self-cleavage worked out at 0.1.
In the case of A3U C27A C38A G42A U66C, the self-cleavage amounted to 0.12.
To A3U C4U U60C belongs 0.66; to C4U A20G G55U, 1.04; to C4A A35U U43A A57G, 0.51.
With C4A A35G U58C A77G the figure was 1.22; with C4A U26C G36A U48C, 0.35.
With C4U A35U U43A U58C C59U the figure was 0.2; with C4A A28G U43A U58A, 0.23; with A3U U54C A65G C71A U76C, 0.31.
For C4A A57G A64G, the self-cleavage is 1.13.
To C4U G6C A15G U31C C50A belongs 0.11.
On to C4G G9U A18U U41A U43A, for which the self-cleavage came to 0.08.
To A3U A64G U69C U72A A75G belongs 0.18.
To A3U U25C C40A A45C A65G belongs 0.48; to C4U A45U U54A A57G, 0.33; to C4G A13G G19A U60C C62G U67A U78C, 0.07.
To A3U G8U U41A belongs 0.33; to A3U U25C U31A C40U A64G C68A, 0.11.
For the variant C4G U43A G73A, the self-cleavage stood at 1.28.
For A3U G24C A28G C44A, the self-cleavage worked out at 0.31.
